PubChem BioAssay AID434955 (Southern Research Specialized Biocontainment Screening …, 2010)
The other results are listed elsewhere or left out. These are further read-outs of the screen, such as a control signal, another cell line or another target. No call is given for them. The list favours compounds with an active or inconclusive main result.

Experiment: beta-lactam sensitization of Mtb H37Rv, H37Rv (AID 434955);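 note: growth measured after seven days incubation then overnight dye step; 0% = bacteria only wells and 100% = bacteria with antibiotic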
Details: M. tuberculosis H37Rv growth with meropenem, percent inhibition; measured here: primary screen without meropenem; at 25 µM
`CN(C)N=C1c2cc(S(=O)(=O)N3CCOCC3)ccc2-c2ccc(S(=O)(=O)N3CCOCC3)cc21` showed an inhibition of 2%. `Cc1ccc(-c2csc3ncnc(Sc4nnc(CN5CCCCCC5=O)o4)c23)cc1` showed an inhibition of 79.7%. For `O=C(c1cccc(Cl)c1)N1CCC(C(=O)N2CCN(Cc3ccccc3)CC2)CC1`, the inhibition was -11%. With `Cc1cc(C)cc(NC(=O)CSc2nnc(-c3ccccc3Br)o2)c1` the inhibition was -18.3%. For `C=CCOC(=O)C1=C(C)N=C2SCCC(=O)N2C1c1ccc(OC(=O)c2ccco2)cc1` (stereo not drawn), the inhibition was -11%. Compound `COc1ccc(C(=O)/C=C/c2cccs2)c(OC(=O)c2cccc([N+](=O)[O-])c2)c1` has an inhibition of 39%. For `O=C(CN1CCN(S(=O)(=O)c2ccc(Cl)cc2)CC1)NC(=O)NC1CCCCC1`, the inhibition was 2.1%. For `CC(C)c1ccccc1NC(=O)Nc1ccc2c(c1)OCO2`, the inhibition was 1.19%. `CCOCCCNC(=O)CC1Oc2ccc(C)cc2NC1=O` (stereo not drawn) gave an inhibition of 0.75%. `COc1cccc(-c2cc(C(=O)N3CCN(Cc4ccc5c(c4)OCO5)CC3)on2)c1` showed an inhibition of 3.25%. Compound `COc1ccc(C2=NOC(C(=O)NC3CCCCC3)C2)cc1OC` (stereo not drawn) has an inhibition of -3.13%. In the case of `COc1ccc(-c2c(-c3ccc(O)cc3O)n[nH]c2C)cc1OC`, the inhibition is reported as -2.43%. Compound `CC(C(=O)c1ccccc1)[n+]1cccc(Br)c1` (stereo not drawn) has an inhibition of 7.69%. In the case of `COc1cc(NC(=S)NC(=O)CCc2ccccc2)cc(OC)c1`, the inhibition is reported as 11.2%. In the case of `C[C@H](NC(=O)c1[nH]cnc1C(=O)Nc1cccc(Cl)c1)c1ccccc1`, the inhibition is reported as 66.4%. Work on `O=C(CN1C(=O)c2cccnc2Oc2ccc(Cl)cc21)NCCC1=CCCCC1` yielded an inhibition of 6.69%. `Cc1ccc(S(=O)(=O)Nc2ccc(S(=O)(=O)Nc3nccs3)cc2)c([N+](=O)[O-])c1` gave an inhibition of 94.6%. `CN1CCOCCOCCN(C)C1=O` showed an inhibition of 1.83%. `Cc1ccc(C2=NN(C(=O)CSc3nccn3C)C(c3ccco3)C2)cc1` (stereo not drawn) showed an inhibition of 0.5%. Work on `N#Cc1c(-c2ccncc2)cc(-c2ccc(F)cc2)nc1N` yielded an inhibition of -3.14%. With `CSCCC(NC(=O)c1cccc(S(=O)(=O)N2CCOCC2)c1)C(=O)Nc1cccc(C)c1` (stereo not drawn) the inhibition was -7.83%. Work on `CCOC(=O)N1CCc2c(sc(NC(=O)CCS(=O)(=O)c3ccccc3)c2C(N)=O)C1` yielded an inhibition of 6.23%. `O=C(O)CCCCNS(=O)(=O)c1ccc(Cl)c(C(F)(F)F)c1` showed an inhibition of -5.46%. For `COc1ccc(/C=N/NC(=O)Cn2cnc3ccccc3c2=O)cc1`, the inhibition was -0.13%. With `CCN1CCc2c(sc(NC(=O)c3ccc(S(=O)(=O)N4CCCC4)cc3)c2C(=O)NC)C1` the inhibition was 2.94%. In the case of `O=C1c2oc3ccccc3c(=O)c2C(c2cccc(O)c2)N1CCCN1CCOCC1` (stereo not drawn), the inhibition is reported as 0.52%. `CC(C)c1ccc(CN2CC(C(=O)O)CC2=O)cc1` (stereo not drawn) showed an inhibition of -2.66%. In the case of `CSc1ccc(-c2nnn(CC(=O)NCc3ccccc3)n2)cc1`, the inhibition is reported as 35.1%. Compound `Cc1ccc2[nH]c(=O)c3cc(C(=O)NCCN4CCN(C)CC4)sc3c2c1` has an inhibition of 1.21%. Work on `O=CN/N=C/c1c(O)ccc2ccccc12` yielded an inhibition of -0.76%. `COCCNC(=O)COc1ccc(Nc2ccccc2)cc1` gave an inhibition of -12.2%. For `O=C(N1CCOCC1)N1CCN(S(=O)(=O)c2ccccc2)C1`, the inhibition was -0.17%. Compound `O=C(Cc1ccc(Cl)cc1)NNC(=O)C1CC=CCC1C(=O)O` (stereo not drawn) has an inhibition of 0.67%. In the case of `CCC1Oc2ccccc2N(CC(=O)Nc2ccc3c(c2)OCCO3)C1=O` (stereo not drawn), the inhibition is reported as 1.36%. In the case of `CCCN1CCN(C(=O)c2cc(COc3ccc(F)cc3F)on2)CC1`, the inhibition is reported as -6.75%. For `Cc1ccc(NC2CCCN(C(=O)CCN3CCCCO3)C2)cc1C` (stereo not drawn), the inhibition was 60.6%. In the case of `Cc1cc(C)cc(OCCNC(=O)C2CCN(S(=O)(=O)c3ccccc3)CC2)c1`, the inhibition is reported as -11.9%. `Cc1cc(C(=O)Nc2nnc(C3CC3)s2)c(C)s1` showed an inhibition of 86.3%. `Cc1ccc(CSc2nccc(-c3c(C)nc4ccccn34)n2)cc1` gave an inhibition of 37%. `Nc1c(-c2ccccc2)cnn1-c1ccc(C(=O)O)cc1` gave an inhibition of 6.3%. Work on `O=C1CS/C(=N/N=C2C3CC4CC(C3)CC2C4)N1` yielded an inhibition of 21.1%. With `CSc1nnc(NC(=O)c2cc(=O)c3cc(C)cc(C)c3o2)s1` the inhibition was 10.2%. With `COc1ccccc1N1CCN(CC(=O)Nc2cc(F)ccc2C)CC1` the inhibition was 45.1%. Work on `Cc1ccccc1S(=O)(=O)Cc1ccc(C(=O)NCc2cccs2)o1` yielded an inhibition of 2.67%. Compound `CCCCOc1ccccc1NC(=O)c1ccco1` has an inhibition of 29.5%. Compound `Cc1cccc(OCC(=O)Nc2nccs2)c1C` has an inhibition of 11.9%. Work on `C=CCn1c(O)c(N=Nc2ccccc2O)c2ccccc21` yielded an inhibition of 100%. With `COC(=O)c1ccccc1NC(=O)N1CCN(C/C=C/c2ccccc2)CC1` the inhibition was 8.81%. For `CCc1cccc(CC)c1NC(=O)CSc1nc2ccc(N3C(=O)C4C(C3=O)[C@H]3C=C[C@@H]4C3)cc2s1` (stereo partly drawn), the inhibition was -9.69%. `Cc1ccc(C(=O)N2CCCC(Nc3cccc(F)c3)C2)cc1N1CCNC1=O` (stereo not drawn) showed an inhibition of -4.83%. Compound `CCN(Cc1ccncc1)C(=O)c1cc(COc2ccc(OC)cc2Cl)on1` has an inhibition of 16.6%. Compound `CCCNC(=O)CN(c1ccc(F)c(Cl)c1)S(C)(=O)=O` has an inhibition of -4.41%. Work on `CCOC(=O)C1CCN(C(=O)c2sc3nc(C)nc(N4CCC(C)CC4)c3c2C)CC1` yielded an inhibition of 32.5%. `C=CCNC(=O)c1ccccc1Cl` showed an inhibition of 1.17%. For `CC(C)(C)c1cc(Cc2ccccc2)[nH]n1`, the inhibition was 28.4%. With `O=C(NCCc1ccccc1C(F)(F)F)C1CCC(=O)N(C2CC2)C1` (stereo not drawn) the inhibition was -7.73%. `CC(NC(=O)COC(=O)CCc1ccccc1)c1ccccc1` (stereo not drawn) gave an inhibition of 1.59%. For `O=C(CSc1nnc(NC(=O)c2ccccc2F)s1)NCc1ccc(F)cc1`, the inhibition was 0.43%. For `C=CCN(c1ccccc1)S(=O)(=O)c1cc2c(cc1C)NC(=O)CO2`, the inhibition was -4.33%. Work on `CCOc1ccc2nc(NC(=O)C3CCN(S(=O)(=O)c4cnc[nH]4)CC3)sc2c1` yielded an inhibition of -7.99%. With `O=C(Cn1nc(Cc2cccnc2)c2ccccc2c1=O)NCC1COc2ccccc2O1` (stereo not drawn) the inhibition was -1.52%. Compound `COc1ccc(NC2CC(=O)N(C)C2=O)cc1` (stereo not drawn) has an inhibition of 31%. `O=C(CSc1nnc(-c2cccs2)o1)Nc1cccc(S(=O)(=O)N2CCCCC2)c1` showed an inhibition of 0.86%. In the case of `Cc1cc(NS(=O)(=O)c2ccc(NC(=O)CSc3nnc(-c4ccco4)n3Cc3ccco3)cc2)nc(C)n1`, the inhibition is reported as -2.25%. Work on `C=CCSc1nnc(-c2cc3c(-c4ccccc4)nn(C)c3s2)n1C` yielded an inhibition of 22.7%. Compound `COc1ccccc1OCCNCC(O)COc1cccc2[nH]c3ccccc3c12` (stereo not drawn) has an inhibition of -5.06%. In the case of `Cc1ccc(C(=O)N2CCCC(CCC(=O)N3CCN(c4ccccn4)CC3)C2)cn1` (stereo not drawn), the inhibition is reported as -1.02%. In the case of `CCOC(=O)c1[nH]c(C)c(C(=O)N(CC)CC)c1C`, the inhibition is reported as -11%. Compound `O=C(c1cc(COc2ccc(F)cc2F)on1)N1C[C@H]2CC[C@H]1C2` has an inhibition of -3.17%. `Cc1cc(C)c(C)c(S(=O)(=O)N2C(=S)NC(=O)C2CC(C)C)c1C` (stereo not drawn) showed an inhibition of 9.18%. For `CCc1cc(C(=O)O)c(NC(=O)/C=C/c2ccc(OC)cc2)s1`, the inhibition was 2.75%. `CCOC(=O)N1CCN(C(=O)C2CCN(c3nnc(-n4cccc4)s3)CC2)CC1` showed an inhibition of -4.54%. Work on `O=C(CCc1ccccc1)NC(=S)Nc1cccc(C(=O)O)c1` yielded an inhibition of 5.39%. In the case of `COC(CN(C(=O)CCl)C(C(=O)NC1CCCCC1)c1ccccc1C)OC` (stereo not drawn), the inhibition is reported as -5.02%. For `CCc1ccc2oc(-c3cc(N)cc(C)c3O)nc2c1`, the inhibition was 42.6%. With `CCOc1ccc(/C=N/n2c(COc3ccccc3)n[nH]c2=S)cc1OC` the inhibition was 3.96%. Compound `Cc1cc(C)c(S(=O)(=O)Nc2ccc(O)c(Sc3ncn[nH]3)c2)cc1C` has an inhibition of -3.72%. `Cc1cc2[nH]c(=O)c(=O)[nH]c2cc1S(=O)(=O)N1CCN(c2cccc(C)c2C)CC1` showed an inhibition of -7.28%. In the case of `Cc1ccc(-n2nc3c(c2NC(=O)c2ccc(F)c(F)c2)CS(=O)(=O)C3)cc1`, the inhibition is reported as -7.41%. `CC(C)C(=O)Nc1nnc(SCC(=O)N2c3ccccc3CC2C)s1` (stereo not drawn) showed an inhibition of -3.03%. `CCOC(=O)c1c(Nc2ccc(Cl)cc2)sc(/C=C2\C=Nc3ccccc32)c1O` showed an inhibition of 8.38%. `C=CCOC(=O)C1=C(C)OC(N)=C(C#N)C1c1ccoc1` (stereo not drawn) gave an inhibition of 1.42%. In the case of `Cc1cc(C)c(C)c(S(=O)(=O)N2CCN(CC(=O)Nc3sccc3C#N)CC2)c1C`, the inhibition is reported as -0.28%. In the case of `S=c1[nH]cnc2scc(-c3ccc(Br)cc3)c12`, the inhibition is reported as 42%. With `O=C(Nc1ccnn1C1CCN(Cc2cccc(OCCO)c2)CC1)C1CC1` the inhibition was -3.87%. With `NS(=O)(=O)c1cccc(NC(=O)CCSc2ccccc2Cl)c1` the inhibition was -0.94%. `COc1ccc(OCc2cc(C(=O)NCC3(C)COC3)no2)c(Cl)c1` showed an inhibition of -4.38%. `Cc1ccc(/C=N\NC(=O)c2csnn2)cc1` gave an inhibition of 19.4%. `COc1ccc(CCN2CC(C(=O)N3CCN(C(C)=O)CC3)CCC2=O)cc1` (stereo not drawn) showed an inhibition of 2.04%. `Cc1ccc(SCCNC(=O)c2ccc(C)c([N+](=O)[O-])c2)cc1` gave an inhibition of -0.7%. In the case of `O=C(N/N=C/c1ccc(OC(=O)c2ccc3c(c2)OCO3)cc1)c1cncc(Br)c1`, the inhibition is reported as 34.1%. Work on `C=CCCC(=O)N1CCC(Oc2cccc(C(=O)NCc3ccccn3)c2)CC1` yielded an inhibition of 3.45%. In the case of `O=C(Nc1nc(-c2ccc3c(c2)OCCO3)cs1)c1ccco1`, the inhibition is reported as 7.76%. `COc1ccc(CN(C(=O)c2oc3ccc(F)cc3c2C)C2CCS(=O)(=O)C2)cc1` (stereo not drawn) gave an inhibition of 15.7%. For `COc1ccc(C)cc1NC(=O)CCCN1C(=O)C2CC=CCC2C1=O` (stereo not drawn), the inhibition was -7.12%. `O=C(NC1CC2CCCC(C1)N2Cc1cccs1)N1CCOCC1` (stereo not drawn) showed an inhibition of -9.03%. For `Cc1cccc(NC(=S)NC(=O)C2CC2)c1`, the inhibition was 11.1%. With `COc1cccc(C(C2=C(O)CC(C)(C)CC2=O)C2C(=O)CC(C)(C)CC2=O)c1` (stereo not drawn) the inhibition was 2.89%. In the case of `S=C(NN=C1C2CC3CC(C2)CC1C3)Nc1ccccc1`, the inhibition is reported as -6.84%. `C/C(=N\NC(=O)c1ccccc1)c1c(O)n(C2CCCCC2)c(=O)[nH]c1=O` gave an inhibition of 5.01%. `CCCNC(=O)CCc1c(C)nc2c(c(C)nn2-c2ccc(C)cc2)c1C` showed an inhibition of 0.29%. With `COc1ccc(Nc2cc3n(c(=O)n2)CCc2cc(OC)c(OC)cc2-3)c(C)c1` the inhibition was -1.66%. `Cc1nnc(NC(=O)CSc2nnc(CNC(=O)c3ccccc3)o2)s1` gave an inhibition of -2.63%. In the case of `O=C(CSc1nnc(-c2ccco2)n1-c1ccccc1)NCC1CCCO1` (stereo not drawn), the inhibition is reported as 3.15%. `COc1ccccc1CN1C(=O)CNC1=S` showed an inhibition of 5.34%. `COc1ccc(C(=O)N2CCCC(Nc3ccc(F)cc3)C2)c(OC)c1` (stereo not drawn) showed an inhibition of -2.53%. Work on `CCOC(=O)c1sc2nc(-c3ccco3)c3c(c2c1N)CC(C)(C)OC3` yielded an inhibition of 43.2%. Compound `CC(CC(=O)NCc1ccco1)S(=O)(=O)c1ccc2c(c1)CCN2C(=O)C1CC1` (stereo not drawn) has an inhibition of -0.39%.
